The test system of this assay is primary human hepatic stellate cells (donor 1). As to the kind of experiment: scaled lipid accumulation score (0 = DMSO-like, 1 = nortriptyline-like); higher = stronger HSC inactivation (lipid re-accumulation), active = hit call of the paper. The note with it: 48 h.
Setting [1] is: library stock concentration: 10 mM.
The mark [2] stands for this setting: library stock concentration: 400 uM.
Setting [3] is: library stock concentration: 2 mM.
The mark [4] stands for this setting: library stock concentration: 3.33 mM.
Setting [5] is: library stock concentration: 1 mM.
Setting [6] is: library stock concentration: 80 uM.

The structures appear in SMILES notation. Several values for one entry are separate records, joined by “and”; a condition that tells them apart may be missing. Identical values can stand only once. Counter-ions that a name gives are not always drawn. The whole screen tested about 5,800 compounds, of which about 620 (11%) showed activity.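 The calls were made as follows: active = score above a cut-off or among the top three wells of a plate; in these data no inactive exceeds 0.85.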 Only a part is listed here, and it is no random draw.

For `CC[N+](C)(C)c1cccc(O)c1` [Edrophonium chloride], the “scaled lipid accumulation score” value is inactive: ≤ 0. Further, where the note is “library stock concentration: 9.9 mM”, the “scaled lipid accumulation score” value was inactive: ≤ 0. In addition, under setting [1], the “scaled lipid accumulation score” value is inactive: ≤ -0.07 and inactive: ≤ -0.027.
With `O=C1NC(=O)C(c2cnc3ccccn23)=C1c1cn2c3c(cc(F)cc13)CN(C(=O)N1CCCCC1)CC2`, the “scaled lipid accumulation score” value under setting [2] was inactive: 0.836 and the “scaled lipid accumulation score” value under setting [3] was inactive: 0.699.
In the case of `CC(CN1c2ccccc2Sc2ccccc21)N(C)C.Cl` (centres undefined) [Promethazine hydrochloride], the “scaled lipid accumulation score” value under setting [1] was active: 0.888.
With `Cc1ccc(S(=O)(=O)c2ccc([N+](=O)[O-])o2)cc1`, the “scaled lipid accumulation score” value is inactive: 0.556 under setting [4] and inactive: 0.799 under setting [1].
With `C[C@@H](O)CN(CCN(C[C@@H](C)O)C[C@@H](C)O)C[C@@H](C)O`, under setting [1], the “scaled lipid accumulation score” value was inactive: ≤ 0.
Regarding `Cc1cn[nH]c1` [Fomepizole hydrochloride], under “library stock concentration: 16.9 mM”, the “scaled lipid accumulation score” value is inactive: ≤ 0.
With `Cc1cn[nH]c1` [4-Methylpyrazole hydrochloride], the “scaled lipid accumulation score” value under setting [1] was inactive: ≤ -0.055.
Consider `COc1ccc2c(c1)CCC1C2CCC2(C)C(NCCCCCCN3C(=O)C=CC3=O)CCC12` (centres undefined), for which the “scaled lipid accumulation score” value was inactive: ≤ 0 under setting [5] and inactive: 0.397 under setting [1].
For `COc1cc2c(Nc3ccc(NC(=O)c4ccccc4)cc3)ncnc2cc1OCCCN1CCOCC1`, the “scaled lipid accumulation score” value under setting [1] is active: 1.03.
In the case of `COC(=O)C1=C(C)NC(C)=C([N+](=O)[O-])C1c1ccccc1C(F)(F)F` (centres undefined), the “scaled lipid accumulation score” value by setting is: under setting [1], inactive: 0.011 and inactive: ≤ -0.006; (library stock concentration: 14 mM) inactive: ≤ -0.021.
As to `COc1cc(C(=O)OCCCN2CCCN(CCCOC(=O)c3cc(OC)c(OC)c(OC)c3)CC2)cc(OC)c1OC` [Dilazep dihydrochloride], the “scaled lipid accumulation score” value is inactive: 0.164.
Turning to `COc1ccc(-c2ccc3c(N4CCOC[C@@H]4C)nc(N4CCOC[C@@H]4C)nc3n2)cc1CO`, the “scaled lipid accumulation score” value under setting [6] was inactive: ≤ 0; the “scaled lipid accumulation score” value under setting [2] is inactive: 0.033; the “scaled lipid accumulation score” value under setting [3] is inactive: 0.017; the “scaled lipid accumulation score” value under setting [4] was inactive: ≤ 0; the “scaled lipid accumulation score” value under setting [1] was inactive: ≤ 0.
`CC(C)C[C@H](NP(=O)(O)O[C@@H]1O[C@@H](C)[C@H](O)[C@@H](O)[C@H]1O)C(=O)N[C@@H](Cc1c[nH]c2ccccc12)C(=O)O` [Phosphoramidon Disodium Salt]: the “scaled lipid accumulation score” value under setting [4] is inactive: ≤ -0.009 and the “scaled lipid accumulation score” value under setting [1] is inactive: ≤ 0.
`O/N=C/c1ccc(-c2ccc(O)c(F)c2)c(Cl)c1O`: the “scaled lipid accumulation score” value under setting [1] is inactive: 0.02.
Still for that read-out and setting: the result for `CCc1cc2c(cc1CC)CC(NC[C@H](O)c1ccc(O)c3[nH]c(=O)ccc13)C2.O=C(O)C=CC(=O)O` [Indacaterol Maleate] reads active: 1.15; that for `CC[N+](C)(CC)CCOC(=O)C(O)(c1ccccc1)C1CCCCC1` (centres undefined), inactive: ≤ 0; that for `CN(C)CCCn1cc(C2=C(c3c[nH]c4ccccc34)C(=O)NC2=O)c2ccccc21`, active: 1.04.
As for `O=C1c2c(O)cccc2Cc2cccc(O)c21` [Anthralin], the “scaled lipid accumulation score” value runs as follows: (library stock concentration: 8.8 mM) inactive: 0.023; under setting [1], inactive: 0.105.
With `O=C(CCCN1CCC(O)(c2ccc(Cl)cc2)CC1)c1ccc(F)cc1` [Haloperidol], the “scaled lipid accumulation score” value under setting [1] is active: 1.12.
`OCCNCCCOc1cccc(Cl)c1Cl` [2,3-DCPE (hydrochloride)]: the “scaled lipid accumulation score” value under setting [5] was inactive: 0.049.
As to `CN1c2cc3c(cc2N=C(c2ccc(C(=O)O)cc2)c2ccccc21)C(C)(C)CCC3(C)C`, the “scaled lipid accumulation score” value under setting [1] was inactive: 0.08.
In the case of `COc1nccc(-c2c(-c3ccc(F)cc3)ncn2C2CCC(O)CC2)n1` (centres undefined), the “scaled lipid accumulation score” value was inactive: ≤ 0 under setting [6]; inactive: ≤ 0 under setting [2]; inactive: ≤ 0 under setting [3]; inactive: ≤ 0 under setting [4]; inactive: 0.029 and inactive: ≤ -0.006 under setting [1].
Take `COc1c(C)c(C(=O)c2ccc(N)c(C(=O)O)c2)n2ccccc12`: the “scaled lipid accumulation score” value reads like this: under setting [4], inactive: 0.175; under setting [1], inactive: 0.268.
For the molecule `C#CC(N)CCC(=O)O` (centres undefined) [gamma-Acetylinic GABA], the “scaled lipid accumulation score” value under setting [1] is inactive: 0.037.
On the same count and under the same terms, the result for `CCCCC/N=c1\ccn(Cc2ccccc2)c2ccccc12` reads inactive: 0.498.
Take `CCCCCC(=O)/C=C/[C@H]1[C@H](O)CC(=O)[C@@H]1C/C=C\CCCC(=O)O` [15-keto Prostaglandin E2]: the “scaled lipid accumulation score” value under setting [5] is inactive: ≤ 0.
In the case of `C[N+]1(C)CCC(OC(=O)C(c2ccccc2)c2ccccc2)CC1` [4-DAMP methiodide], the “scaled lipid accumulation score” value under setting [1] is inactive: 0.121.
Still for that read-out and setting: the result for `C[N+]1(C)CCC(OC(=O)C(c2ccccc2)c2ccccc2)CC1` reads inactive: ≤ 0.
`O=Cc1c2[nH]c3ccccc3c2cc2[nH]c3ccccc3c12` [6-Formylindolo [3,2-B] carbazole]: the “scaled lipid accumulation score” value under setting [5] was inactive: ≤ -0.02.
As for `CC(=O)Oc1ccccc1C(=O)Nc1ncc([N+](=O)[O-])s1` [Nitazoxanide], the “scaled lipid accumulation score” value was inactive: 0.007 under setting [4] and inactive: 0.218 under setting [1].
As to `CC(=O)Oc1ccccc1C(=O)Nc1ncc([N+](=O)[O-])s1`, the “scaled lipid accumulation score” value under setting [1] is inactive: 0.284.
With `CCN(CC)CCOC(=O)C1(C2CCCCC2)CCCCC1` [Dicyclomine hydrochloride], the “scaled lipid accumulation score” value was inactive: 0.734. For the same molecule, the “scaled lipid accumulation score” value (library stock concentration: 5.8 mM) is inactive: ≤ 0. Further, under setting [1], the “scaled lipid accumulation score” value was inactive: 0.386 and inactive: 0.127.
For `CCN(CC)CCOC(=O)C1(C2CCCCC2)CCCCC1` [Bentyl], under setting [1], the “scaled lipid accumulation score” value is inactive: 0.586.
The same measure, in the same setting: the same measure for `O=c1cc(-c2ccccc2)oc2c(O)c(O)ccc12` [7,8-Dihydroxyflavone hydrate]: inactive: ≤ 0; for `O=c1cc(-c2ccccc2)oc2c(O)c(O)ccc12` [7,8-dihydroxyflavone]: inactive: 0.129.
Still for that read-out and setting: the result for `CCCCOCCOCCOCc1cc2c(cc1CCC)OCO2` reads inactive: 0.298; that for `CC(N/C(=N\C#N)Nc1ccncc1)C(C)(C)C` (centres undefined) [Pinacidil monohydrate], inactive: ≤ 0.
For `CC(N/C(=N\C#N)Nc1ccncc1)C(C)(C)C` (centres undefined) [Pinacidil], the “scaled lipid accumulation score” value is inactive: 0.077. The “scaled lipid accumulation score” value under setting [1] is inactive: ≤ 0 and inactive: ≤ -0.001. Also, the “scaled lipid accumulation score” value (library stock concentration: 20.4 mM) is inactive: 0.096.
For `CC1(C)OC(=O)C(OCC2CC2)=C1c1ccc(S(C)(=O)=O)cc1`, the “scaled lipid accumulation score” value under setting [1] was inactive: ≤ 0.
Regarding `CCCCCCCCCCCCCCCC(=O)OCC(O)C1OC(=O)C(O)=C1O` [L-Ascorbyl 6-palmitate], the “scaled lipid accumulation score” value is, setting by setting: under setting [4], inactive: 0.009; under setting [1], inactive: ≤ 0.
`CCCc1cc(C)[nH]c(=O)c1CNC(=O)c1cc(-c2ccc(N3CCN(C(C)C)CC3)nc2)cc2c1cnn2C(C)C`: the “scaled lipid accumulation score” value reads like this: under setting [4], inactive: 0.09; under setting [1], inactive: 0.78.
On to `COc1ccc([C@@H]2CC(=O)c3c(O)cc(O)cc3O2)cc1O` [Hesperetin], for which the “scaled lipid accumulation score” value is inactive: ≤ 0. Moreover, the “scaled lipid accumulation score” value under setting [5] is inactive: 0.036. Moreover, under setting [4], the “scaled lipid accumulation score” value is inactive: ≤ 0. Also, under setting [1], the “scaled lipid accumulation score” value was inactive: 0.079.

For the origin of these results see the supplement of paper PMC9135407.
